Results reported in PubChem BioAssay AID624417 (National Center for Advancing Translational Sciences (NCATS), 2012).
About 6,400 (1.6%) of roughly 410,000 compounds were called active. The shares of active, inactive and inconclusive entries below differ from those in the screen. The call rests on the fitted dose curve; in most records, active means well fitted inhibition curve with a large enough effect; inconclusive means small, poorly fitted or top-dose-only effect; inactive means no such curve, though single readings can be large or run the other way. Potencies beside an inconclusive call are fits to weak or partial responses and may not hold up.

Target: Glucagon-like peptide 1 receptor (Homo sapiens) (UniProt P43220)
Chain of UniProt P43220 (P43220 whole entry, looked up): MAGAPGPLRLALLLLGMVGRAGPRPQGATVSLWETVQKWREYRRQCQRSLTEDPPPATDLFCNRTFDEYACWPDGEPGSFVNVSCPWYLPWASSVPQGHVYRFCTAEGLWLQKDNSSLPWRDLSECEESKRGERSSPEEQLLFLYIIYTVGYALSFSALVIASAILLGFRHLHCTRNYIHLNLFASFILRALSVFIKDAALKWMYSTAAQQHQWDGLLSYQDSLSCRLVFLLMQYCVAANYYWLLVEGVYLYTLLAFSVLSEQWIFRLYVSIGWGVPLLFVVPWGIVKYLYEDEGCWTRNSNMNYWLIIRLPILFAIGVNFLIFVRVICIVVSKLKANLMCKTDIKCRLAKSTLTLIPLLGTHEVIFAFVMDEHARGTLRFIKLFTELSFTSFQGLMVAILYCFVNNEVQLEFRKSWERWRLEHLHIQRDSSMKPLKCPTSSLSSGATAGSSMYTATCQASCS
Assay: qHTS of GLP-1 Receptor Inverse Agonists (Inhibition Mode); further: nearly all actives have a fitted effect of over 55% in size
Details: HEK293 GLP-1R CRE-luciferase, luminescence, 24 h, GLP-1R form is constitutively active; activity change, negative = inhibition: at 38.3 µM (top of the series) unless noted
In short: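 HEK293 cells stably co-expressing a cAMP-responsive luciferase reporter and constitutively active GLP-1R were seeded, incubated 12 h, then exposed to compounds for 24 h at 37 C. Luminescence was read 12 min after detection reagent; inverse agonists lower signal.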
On the % scale 0 is the no-effect control and ±100 the full control effect; potency means the concentration at half of the fitted maximal effect; tags describe the fitted curve by direction and shape.

Potency, active:
Cc1ccc(-c2cc(C(=O)Nc3nccs3)c3ccccc3n2)o1 10 µM
Cc1ccc(C(C)C)c(OCCCCN2CCNCC2)c1 2.24 µM

Potency, inconclusive:
Cc1cc(Cl)ccc1Oc1ccccc1C(=O)CC#N 22.4 µM [inhibitor, partial curve, poor fit]
CN(C)CCn1c(=O)n(Cc2ccco2)c(=O)c2c3c(sc21)CCCCC3 28.2 µM [inhibitor, single point]
N#Cc1c(NC(=O)c2ccccc2Cl)n(Cc2ccccc2)c2nc3ccccc3nc12 7.94 µM [inhibitor, partial curve, poor fit]
COc1ccc(OC(=O)c2cccc([N+](=O)[O-])c2)c(C(=O)/C=C/c2cccs2)c1 28.2 µM [inhibitor, single point]
CCOC(=O)Cn1c(=NC(=O)C2CC2)sc2c(C)cc(C)cc21 1.58 µM [inhibitor, full curve, poor fit]
CC(=O)Nc1ccc(S(=O)(=O)N2CCSC2c2ccccc2)cc1 (stereo not given) 10 µM [inhibitor, single point]
Cc1ccc(S(=O)(=O)NCCc2csc(-c3ccc(Cl)cc3)n2)cc1 11.2 µM [inhibitor, partial curve, poor fit]
C/C(CCC(C)C)=N\NC(=S)NCc1ccccc1 22.4 µM [inhibitor, single point]
COc1ccc(CC2(CO)CCN(Cc3ccc4nsnc4c3)CC2)cc1 10 µM [inhibitor, partial curve, poor fit]
CC[C@H](C)[C@H](NC(=O)OCc1ccccc1)C(=O)OCC(=O)N(C)CC(=O)Nc1ccccc1Cl 10 µM [inhibitor, partial curve]
COc1ccc2c(c1OC)C(=O)N1C2SC(C)(C)[C@H]1C(=O)NC1CCCC1 (stereo not given in full) 28.2 µM [inhibitor, single point]
CN(C(=O)c1ccc2c(Cl)c3c(nc2c1)CCC3)c1ccccc1 28.2 µM [inhibitor, single point]
COc1cccc(C(=O)NC2CCCc3ccccc32)c1 (stereo not given) 11.2 µM [inhibitor, partial curve, poor fit]
CCc1ccc(NC2=NCC(c3ccccc3)S2)cc1 (stereo not given) 28.2 µM [inhibitor, single point]
CCOc1ccc(NC(=S)NC(=O)c2ccco2)cc1 10 µM [inhibitor, partial curve]
O=C(Nc1ccc(S(=O)(=O)N2CCCCC2c2cccnc2)cc1)c1ccccc1F (stereo not given) 11.2 µM [inhibitor, single point]
O=C(CN1CCN(c2ccc(Cl)cc2)CC1)Nc1cccc(F)c1 20 µM [inhibitor, partial curve, poor fit]
COc1cc(C#Cc2c(-c3cncn3C)n(C)c3ccc(Br)cc23)cc(OC)c1 28.2 µM [inhibitor, single point]
CCCCCCCCC1CC(C(=O)Nc2ccccc2)C(=O)O1 (stereo not given) 28.2 µM [inhibitor, single point]
O=C(CN1CCCN(Cc2ccc(F)cc2Cl)C1=O)NCc1ccccc1 11.2 µM [inhibitor, single point]
Cn1nc(C(=O)NCc2cccc(Cl)c2)c2c1-c1ccccc1S(=O)(=O)C2 14.1 µM [inhibitor, single point]
CC(C)(C)OC(=O)N1CCC(C(=O)Nc2cccc(C(=O)NCc3ccccc3)c2)CC1 14.1 µM [inhibitor, partial curve, poor fit]
CCCCC(=O)Nc1ccc(C(=O)Nc2ccc3c(c2)OCO3)cc1 28.2 µM [inhibitor, single point]
Cc1cc(Cl)cc(Cl)c1OCC(=O)NCc1ccco1 14.1 µM [inhibitor, single point]
CCCNS(=O)(=O)c1ccc(CCC(=O)NCc2ccc3c(c2)OCO3)cc1 8.91 µM [inhibitor, partial curve, poor fit]
O=C(CN1CCN(c2ccc(F)cc2)CC1)N1CCC(Cc2ccccc2)CC1 14.1 µM [inhibitor, partial curve, poor fit]
Cc1ccc(N(C(C)C(=O)Nc2ccc(S(=O)(=O)N3CCOCC3)cc2)S(C)(=O)=O)cc1C (stereo not given) 5.62 µM [inhibitor, partial curve, poor fit]
Fc1ccccc1CSc1ccc(-c2ccco2)nn1 31.6 µM [inhibitor, single point]
COc1ccc(NC(=S)NC(=O)Cc2ccccc2)cc1 31.6 µM [inhibitor, single point]
CC(C)(CNC(=O)c1ccc(-c2ccccc2Cl)o1)N1CCOCC1 14.1 µM [inhibitor, partial curve, poor fit]
Fc1ccc(C(c2nnnn2Cc2cccs2)N2CCN(C3CCCCC3)CC2)cc1 (stereo not given) 22.4 µM [inhibitor, single point]
O=C(CCC1CCCN(Cc2cccc(Cl)c2)C1)NCc1ccccc1F (stereo not given) 11.2 µM [inhibitor, single point]
CCOCCCNc1nc(-c2ccccc2)nc2ccccc12 10 µM [inhibitor, partial curve, poor fit]
COc1ccc(C2=NCCn3cccc32)c(OC)c1 28.2 µM [inhibitor, single point]
NC(=O)N/N=C(/CCCCCC/C(=N\NC(N)=O)c1ccccc1)c1ccccc1 10 µM [inhibitor, partial curve, poor fit]
Cn1nccc1C(=O)NC(=S)Nc1cc(Cl)cc(Cl)c1 1 µM [inhibitor, full curve, poor fit]
O=C(Nc1ccc(CN2CCCCC2)cc1)c1cccc(Br)c1 10 µM [inhibitor, partial curve, poor fit]
O=C(Cc1ccc(Cl)c(Cl)c1)Nc1ccccc1N1CCOCC1 12.6 µM [inhibitor, partial curve, poor fit]
O=C1C=C(c2cc(F)ccc2F)C[C@@H](c2ccc(F)cc2)C1 28.2 µM [inhibitor, single point]
CCOC(=O)Cc1nnc(Nc2cc(C)ccc2C)c2ccccc12 10 µM [inhibitor, single point]
NC(=S)N/N=C/c1ccccc1O 7.94 µM [inhibitor, partial curve, poor fit]
COc1cc(C(=O)NCC(=O)Nc2c(C)cccc2C)ccc1OCc1ccccc1 5.62 µM [inhibitor, full curve]
C=CCN=c1scc(-c2ccc(F)cc2)n1/N=C/c1ccccn1 14.1 µM [inhibitor, partial curve, poor fit]
CCN(CC)CC(=O)Nc1ccc(/C(C)=N/NC2=NCCN2)cc1 10 µM [inhibitor, single point]
C=CCOC(=O)Nc1c(C(=O)OC)[nH]c2ccccc12 22.4 µM [inhibitor, single point]
COc1cc(Cl)ccc1OCc1cc(C(=O)N(C)C2CC(C)(C)NC(C)(C)C2)no1 10 µM [inhibitor, partial curve, poor fit]
CC(C)NC(=S)N/N=C1\CCCc2ccccc21 11.2 µM [inhibitor, partial curve, poor fit]
CC1(c2nnc(-c3cccc(Cl)c3)o2)CC(c2ccc(OC(F)(F)F)cc2)=NO1 (stereo not given) 28.2 µM [inhibitor, single point]
C(=NNc1ccc2ccccc2n1)c1ccccn1 2 µM [inhibitor, full curve, poor fit]
O=C1NC2(CCCCCC2)C(=O)N1Cc1c(F)cccc1Cl 10 µM [inhibitor, single point]

Activity change, negative = inhibition, inactive:
COc1cccc(Cn2c(CNC(=O)CCc3ccccc3)nc3cccnc32)c1 5.46%
Cc1cc(C)cc(NC(=O)Cn2c(=O)n(-c3cc(C)cc(C)c3)c(=O)c3oc4ccccc4c32)c1 -14.8%
N=C1S/C(=C\c2cn[nH]c2-c2ccc(F)cc2)C(=O)N1c1ccccc1F 17.6%
COc1ccc(OC)c(NC(=O)C2CCN(c3cc(-c4ccccc4)nc4ncnn34)CC2)c1 -17.6%
COc1ccc(S(=O)(=O)N(CCC(=O)O)Cc2ccccc2)cc1 1.9%
CCOc1ccc(N=C(/C(C(=O)C(=O)N2CCOCC2)=C(\O)c2ccccc2)c2ccccc2)cc1 -25%
Cc1ccccc1OCC(=O)O/N=C(\N)Cc1cccs1 127%
Cc1ccc(-c2csc(NC(=O)c3cccc(S(=O)(=O)N4CCN(C)CC4)c3)n2)cc1 0.583%
CCN(C(=O)COC(=O)/C=C/c1ccco1)C1CCCCC1 2.59%
Cc1ccc(C(=O)NCC(c2ccc3c(c2)OCO3)N2CCN(C)CC2)cc1C (stereo not given) -6.47%
Cc1ccc(Oc2nc(CN3CCOCC3)nc3sc4c(c23)CCC(C)C4)cc1C (stereo not given) 0%
CCc1noc(-c2ccc(NCc3ccccc3)c([N+](=O)[O-])c2)n1 7.3%
CCOC(=O)c1cnc2c(ccc3ccccc32)c1Nc1cccc(C(F)(F)F)c1 19%
